Assay results reported in PubChem BioAssay AID686979 (National Center for Advancing Translational Sciences (NCATS), 2013).
Where “and” joins values, the source holds several entries; their conditions need not be identical. Equal entries are not always repeated. Among all 420,000 compounds or so, about 50,000 (12%) were called active. This list was built around the results that the source calls inconclusive (neither active nor inactive); the mix of calls is not that of the screen. Calls follow the shape of the dose curve; as a rule, active = well fitted inhibition curve with a large enough effect; inconclusive = small, poorly fitted or top-dose-only effect; inactive = flat fitted curve, though single readings scatter. Potencies beside an inconclusive call are fits to weak or partial responses and may not hold up.

Assay: qHTS for Inhibitors of human tyrosyl-DNA phosphodiesterase 1 (TDP1): qHTS in cells in presence of CPT; also: nearly all actives have a fitted effect of over 55% in size
Details: chicken DT40 Tdp1-/-;hTDP1 cells + 20 nM CPT, ATP luminescence, 48 h; activity change, negative = growth inhibition: at 46.2 µM (top of the series) unless noted
Outline: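 Chicken DT40 Tdp1-/- cells stably complemented with human TDP1 were seeded at 400 cells/well in medium containing 20 nM camptothecin, exposed to pin-transferred compounds, and grown at 37 °C for at least 48 hr. Viability was read as ATP luminescence.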
% is scaled to controls: 0 for no effect and ±100 for the full control effect; potency is read from the fitted curve at half-maximal effect; tags tell the direction and shape of the fitted curve.

Structure (SMILES) | Potency | activity change, negative = growth inhibition
CC1CC(C)CN(C(=O)c2nn(C)c3c2CSc2ccccc2-3)C1 (stereo not given) | inconclusive: 20.6 µM [inhibitor, single point] | –
CC(C)Oc1ccc(C(=O)CCN2CCOCC2)cc1 | active: 3.26 µM | –
CC(NC(=O)CCNC(=O)c1ccc(Br)cc1)c1ccc(S(N)(=O)=O)cc1 (stereo not given) | – | inactive: 3.01%
CCO[C@@H]1OC(C(=O)N2CCN(Cc3ccccc3)CC2)=C[C@H](c2coc3ccccc3c2=O)[C@H]1CCCO | active: 8.2 µM | –
CC(=Cc1ccccc1)C=C1SC(=S)N(CCCC(=O)Nc2ccc(C(=O)O)cc2)C1=O | inconclusive: 29.1 µM [inhibitor, single point] | –
O=C(CSc1ccccc1F)Nc1ccc(N2CCOCC2)cc1 | inconclusive: 29.1 µM [inhibitor, single point] | –
O=S(=O)(c1cccs1)N1CCN(c2ccc(F)cc2)CC1 | – | inactive: -17.3%
Cn1c(=O)c2cc(NC(=O)Cc3cccnc3)ccc2n1-c1ccc2ccccc2c1 | active: 14.6 µM | –
Cn1c(SCC(=O)N2CCCc3ccccc32)nnc1-c1ccco1 | – | inactive: 38.4%
O=[N+]([O-])c1ccc(O)c(C=NN2CCCCC2)c1 | – | inconclusive: -33.9% [inhibitor]
Cc1c(NC(=O)C(C)OC(=O)CCc2ccccc2)c(=O)n(-c2ccccc2)n1C (stereo not given) | – | inactive: 3.59%
Fc1ccc(-c2nc3ccccc3c3nc4ccccc4n23)cc1 | inconclusive: 25.9 µM [inhibitor, single point] | –
Cc1c(Cl)cccc1NC(=O)CNC(=O)Cc1c[nH]c2ccccc12 | – | inactive: -28.7%
NS(=O)(=O)c1ccc(CCNc2ccn3nc(-c4ccc(OCCN5CCOCC5)cc4)cc3n2)cc1 | active: 18.4 µM | –
CCOCCCn1c(SCC(=O)Nc2cccc(OC)c2)nc2ccccc2c1=O | inconclusive: 23.1 µM [inhibitor, single point] and inconclusive: 29.1 µM [inhibitor, single point] | –
Cn1c(N)c(C(=O)CSc2nc3ccccc3c(=O)n2CCCN2CCOCC2)c(=O)n(C)c1=O | inconclusive: 18.4 µM [inhibitor, single point] | –
Nc1ccc(N2CCN(c3cccc(Cl)c3)CC2)cc1 | active: 13 µM | –
CC(C)(CO)C(O)C(=O)NCCCO (stereo not given) | – | inactive: -9.52%
CSc1ccc(NC(=O)C2(C)CCN2C(=O)c2cc(C)n(C)n2)cc1 (stereo not given) | inconclusive: 23.1 µM [inhibitor, single point] | –
CC1(C(=O)Nc2ccc(Cl)cc2)Cc2c(-c3ccc(C(N)=O)cc3)ccnc2O1 (stereo not given) | inconclusive: 18.4 µM [inhibitor, single point] | –
CCOC(=O)c1cc(-c2ccccc2)sc1NC(=O)C(C)OC(=O)c1cccnc1Cl (stereo not given) | active: 23.1 µM | –
COc1ccc(NC(=O)COC(=O)C2CC(=O)N(CCc3ccc(OC)c(OC)c3)C2)cc1Cl (stereo not given) | – | inactive: 4.92%
CCOc1ccccc1CNC(=O)c1cnc2sc(N3CCCC3)nn2c1=O | active: 14.6 µM | –
CCC(CO)Nc1ncnc2c1cnn2-c1ccc(C)cc1 (stereo not given) | – | inactive: -6.22%
Cc1nc(NC(C)c2ccccc2)sc1C(=O)Nc1ccccc1 (stereo not given) | inconclusive: 0.0065 µM [inhibitor, full curve, poor fit] | –

Structure (SMILES) | Potency | activity change, negative = growth inhibition
O=C(Nc1cccc(S(=O)(=O)Nc2ccccc2Cl)c1)c1ccc(Cl)nc1 | active: 11.6 µM | –
O=C(NCc1ccc2c(c1)OCO2)c1ccc2c(c1)N(Cc1ccc(F)cc1)C(=O)c1ccccc1S2=O (stereo not given) | – | inactive: -17.6%
CCOc1ccc(NS(=O)(=O)c2ccc(C(=O)N3CCCC(C)C3)cc2)cc1 (stereo not given) | active: 16.4 µM | –
COC(=O)Nc1ccc(S(=O)(=O)N2CCCc3ccccc32)cc1 | active: 2.59 µM | –
CCN1CCN(CCOc2cccc(Cl)c2Cl)CC1 | inconclusive: 20.6 µM [inhibitor, single point] | –
CC(=O)c1cn(CC(=O)Nc2ccccc2C(F)(F)F)c2ccccc12 | inconclusive: 29.1 µM [inhibitor, single point] | –
CS(=O)(=O)N1CCCC(C(=O)Nc2ccccc2)C1 (stereo not given) | – | inactive: -7.75%
Cc1cc(N)ccc1-n1c(C)ccc1C | inconclusive: 20.6 µM [inhibitor, single point] | –
O=C(NNc1ccnc2cc(Cl)ccc12)C1CCCCC1 | active: 0.92 µM | –
O=C(c1cc(-c2ccncc2)nc2ccccc12)N1CCCC(C(F)(F)F)C1 (stereo not given) | inconclusive: 29.1 µM [inhibitor, single point] | –
CC(C)Cc1ccc(-c2cc3nc(NCCCn4ccnc4)ccn3n2)cc1 | inconclusive: 29.1 µM [inhibitor, single point] | –
CCOC(=O)C(Cc1ccc(O)cc1)NC(=O)CNC(=O)C(CC(C)C)NC(=O)OC(C)(C)C (stereo not given) | – | inactive: -2.4%
NC(=O)NC(CC(=O)Nc1cccnc1)c1cccc(Br)c1 (stereo not given) | – | inactive: 8.72%
CN(C)CCCNC(=O)N1c2ccccc2C=Cc2ccccc21 | inconclusive: 29.1 µM [inhibitor, single point] | –
NC(=S)n1[nH]c(-c2ccc([N+](=O)[O-])cc2)c(N=Nc2ccc(Cl)cc2)c1=O | inconclusive: 6.51 µM [inhibitor, single point] | –
CCOc1ccc(S(=O)(=O)N2CCN(C(=O)c3oc4ccccc4c3C)CC2)cc1 | inconclusive: 23.1 µM [inhibitor, single point] | –
O=C(c1ccc(Cl)cc1)c1ccc(OCC(O)CN2CCOCC2)cc1 (stereo not given) | active: 23.1 µM | –
Cc1c(CCC(=O)NCCC(=O)O)c(=O)oc2c(C)c3oc4c(c3cc12)CCCC4 | – | inactive: 5.32%
CCOC(=O)/C(C#N)=C1/SC(CCO)C(=O)N1c1ccccc1 (stereo not given) | inconclusive: 20.6 µM [inhibitor, single point] | –
CC(O)c1nc2ccccc2n1CCCc1ccccc1 (stereo not given) | active: 18.4 µM | –
Cn1c(=O)c(C(=O)NC2CCCCCCC2)c(O)c2ccccc21 | active: 20.6 µM | –
Cc1cc(C)cc(-n2c(SCC(=O)NCC3CCCO3)nc3c([nH]c4ccccc43)c2=O)c1 (stereo not given) | inconclusive: 16.4 µM [inhibitor, single point] | –
COCCNC(=O)c1cccc(OC2CCN(Cc3ccc(Cl)c(F)c3)CC2)c1 | inconclusive: 20.6 µM [inhibitor, single point] | –
CC(C)Oc1ccc(C(=O)OCC(=O)NCCNC(=O)COC(=O)c2ccc(OC(C)C)cc2)cc1 | inconclusive: 29.1 µM [inhibitor, single point] | –
O=C(NNC(=O)c1cncc(Br)c1)c1ccncc1 | – | inactive: 12.4%

Structure (SMILES) | Potency | activity change, negative = growth inhibition
CN1CCN(C(=O)Cn2ncc3c([nH]c4ccccc43)c2=O)CC1 | – | inactive: 0.296%
O=C1c2ccccc2C(=O)C1Cc1cccc2ccccc12 | active: 14.1 µM | –
Cc1ccc(S(=O)(=O)N2CCN(S(=O)(=O)N(C)C)CC2)cc1 | – | inactive: -23.8%
COc1ccc2c(c1)-c1nc(NC(=O)c3ccc(C)cc3)sc1CC2 | inconclusive: 18.4 µM [inhibitor, single point] | –
CN(CC(=O)Nc1ccc(Cl)c(C(F)(F)F)c1)C(=O)CCC(=O)c1ccccc1 | inconclusive: 23.1 µM [inhibitor, single point] | –
Cc1cc(C)c2nc(-c3cccnc3)cc(C(=O)NC(C)c3cnn(C)c3C)c2c1 (stereo not given) | – | inactive: -18.7%
O=S(=O)(Nc1ccc(F)cc1)c1ccc(NC(=S)Nc2ccccc2)cc1 | – | inconclusive: -30.7% [inhibitor]
COc1cccc(C(C)(O)c2nc(-c3cnn(C)c3)cs2)c1 (stereo not given) | – | inconclusive: -35.9% [inhibitor]
C#CCNC(=O)C1=C[C@@H](c2ccc(C(F)(F)F)cc2)C[C@@H](OCc2ccc(CO)cc2)O1 | inconclusive: 29.1 µM [inhibitor, single point] | –
Cc1ccc2nc(C)c(C(=O)N/N=C/c3cccs3)n2c1 | inconclusive: 4.11 µM [inhibitor, full curve] | –
CCCC(=O)C1=C(c2ccc(C)c(C)c2)N(C(=O)CCC)n2c(CC)nnc2S1 | inconclusive: 20.6 µM [inhibitor, single point] | –
CCc1cccc(CC)c1NC(=O)c1cccc(N)c1 | inconclusive: 18.4 µM [inhibitor, single point] | –
CC(=O)OC1C(OC(C)=O)C2C(C)CC3OC(=O)C(C)C3CC2(C)C1OC(C)=O (stereo not given) | – | inactive: 1.55%
O=C(CCc1ccccc1)NNC(=O)CCc1ccccc1 | – | inactive: -1.16%
NC(=O)c1nsc(C(=O)N(CCc2ccccc2)C(C(=O)NC2CCCC2)c2ccco2)c1N (stereo not given) | inconclusive: 18.4 µM [inhibitor, single point] | –
CCOc1ccc(CCNC(=O)c2ccc3nc(N4CCOCC4)sc3c2)cc1OCC | inconclusive: 10.3 µM [inhibitor, partial curve] | –
COc1ccc(C(=O)Nc2ccc(N3CCCC3)cc2)cc1Br | inconclusive: 16.4 µM [inhibitor, single point] | –
COc1cccc(N(C(=O)c2ccco2)c2nc(-c3sc(NC(=O)c4ccco4)nc3C)cs2)c1 | active: 14.6 µM | –
C=CCn1c(SCCC(=O)O)nnc1-c1cccs1 | – | inactive: 3.1%
Cc1ccccc1-c1cc2nc(Oc3cccc(F)c3)n(C)c(=O)c2s1 | inconclusive: 20.6 µM [inhibitor, single point] | –
CC(C)c1nnc(NC(=O)CS(=O)(=O)Cc2ccccc2)s1 | – | inactive: 32.1%
CC1(c2ccc([N+](=O)[O-])cc2)Nc2ccccc2S1 (stereo not given) | inconclusive: 29.1 µM [inhibitor, single point] | –
CCCCC[C@H](O)/C=C/C1C(=O)C=C[C@H]1C/C=C\CCCC(=O)OC (stereo not given in full) | active: 5.8 µM | –
Cc1ccc(NC(=O)C(C)OC(=O)c2ccc(NC(=O)CC#N)cc2)cc1S(=O)(=O)N1CCOCC1 (stereo not given) | – | inactive: 14.7%
O=C1CCC([N+](=O)[O-])C(c2ccc(Cl)cc2)N1 (stereo not given) | – | inactive: -2.55%
